# Measurements published in patent publication US8114627 (Scripps Research, dated 2012).
# B1: sulfo-hirudin ([Leu1, Thr2]-hirudin with sulfotyrosine at position 63, expressed in E. coli) (other)
# chain: LTYTDCTESGQNLCLCEGSNVCGQGNKCILGSDGEKNQCVTGEGTPKPQSHNDGDFEEIPEEYLQ
# modifications: sulfotyrosine at position 63
# notes: mature; It prints only the new residues Leu1 and Thr2; also called sulfated hirudin; genetically encoded sulfo-hirudin
# Biological target: human α-thrombin (Diapharma) (human)
# Test: kinetic analysis of thrombin inhibition; the reference is desulfo-hirudin
# Description: To characterize the efficacy of the expressed sulfo-hirudin as an anticoagulant, the kinetics of thrombin inhibition were determined using a fluorogenic enzyme assay based on the single progress curve method previously reported in the literature (Cha, "Tight-binding inhibitors—III. A new approach for the determination of competition between tight-binding inhibitors and substrates—inhibition of adenosine deaminase by coformycin," *Biochem Pharmacol* 25:2695-2702 (1976); Komatsu et al., "CX-397, a novel recombinant hirudin analog having a hybrid sequence of hirudin variants-1 and -3," *Biochem Biophys Res Commun* 196:773-779 (1993)). In this assay, 100 pM of either sulfo-hirudin or desulfo-hirudin was mixed with 50 µM fluorogenic substrate to which human α-thrombin was added to initiate the reaction.
# The exact concentrations of hirudin and sulfo-hirudin were determined by titration against thrombin in a concentration range where 1:1 binding could be assumed. […] These thrombin inhibition kinetic constants derived from non-linear fitting of progress curves averaged over at least 3 readings with standard deviations reported are shown in the table below.
binder,measurement,value
B1,fold higher affinity than desulfo-hirudin,10 fold
